# In the supplement of paper PMC8728848:
# The other results are listed elsewhere or left out.
# Tests used:
# Test in all cases: glycan array binding signal (z-score within array); higher = stronger binding
# Conditions in all cases: glycan notation: IUPAC condensed, linker removed
# Fuc(a1-2)Gal = biological target: Fuc(a1-2)Gal
# In short: (§1)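 Columns mapping to the same glycan were averaged after glycan names were converted to IUPAC-condensed notation. The data come from 3228 arrays in the Consortium for Functional Glycomics database, limited to those with an available protein sequence. Binding is reported as a within-array Z-score averaged across arrays of one protein sequence and across linkers.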
# Fuc(a1-2)Gal(b1-3)GalNAc = biological target: Fuc(a1-2)Gal(b1-3)GalNAc
# In short: as §1
# [1] = biological target: Fuc(a1-2)Gal(b1-3)GalNAc(a1-3)[Fuc(a1-2)]Gal(b1-4)Glc
# In short: as §1
# [2] = biological target: Fuc(a1-2)Gal(b1-3)GalNAc(a1-3)[Fuc(a1-2)]Gal(b1-4)GlcNAc
# In short: as §1
# [3] = biological target: Fuc(a1-2)Gal(b1-3)GalNAc(b1-3)Gal
# In short: as §1
# [4] = biological target: Fuc(a1-2)Gal(b1-3)GalNAc(b1-3)Gal(a1-4)Gal(b1-4)Glc
# In short: as §1
# [5] = biological target: Fuc(a1-2)Gal(b1-3)GalNAc(b1-4)[Neu5Ac(a2-3)]Gal(b1-4)Glc
# In short: as §1
# Fuc(a1-2)Gal(b1-3)GlcNAc = biological target: Fuc(a1-2)Gal(b1-3)GlcNAc
# In short: as §1
# [6] = biological target: Fuc(a1-2)Gal(b1-3)GlcNAc(b1-2)Man(a1-3)[Fuc(a1-2)Gal(b1-3)GlcNAc(b1-2)Man(a1-6)]Man(b1-4)GlcNAc(b1-4)GlcNAc
# In short: as §1
# [7] = biological target: Fuc(a1-2)Gal(b1-3)GlcNAc(b1-2)Man(a1-3)[Fuc(a1-2)Gal(b1-3)GlcNAc(b1-2)Man(a1-6)]Man(b1-4)GlcNAc(b1-4)[Fuc(a1-6)]GlcNAc
# In short: as §1
# [8] = biological target: Fuc(a1-2)Gal(b1-3)GlcNAc(b1-3)Gal(b1-4)Glc
# In short: as §1
# [9] = biological target: Fuc(a1-2)Gal(b1-3)GlcNAc(b1-3)GalNAc
# In short: as §1
# [10] = biological target: Fuc(a1-2)Gal(b1-3)GlcNAc(b1-3)[Fuc(a1-2)Gal(b1-3)GlcNAc(b1-6)]GalNAc
# In short: as §1
# [11] = biological target: Fuc(a1-2)Gal(b1-3)GlcNAc(b1-3)[Gal(b1-4)GlcNAc(b1-6)]Gal(b1-4)Glc
# In short: as §1
# [12] = biological target: Fuc(a1-2)Gal(b1-3)GlcNAc(b1-3)[Neu5Ac(a2-6)Gal(b1-4)GlcNAc(b1-6)]Gal(b1-4)Glc
# In short: as §1
# [13] = biological target: Fuc(a1-2)Gal(b1-3)GlcNAc6S
# In short: as §1
# [14] = biological target: Fuc(a1-2)Gal(b1-3)[Fuc(a1-4)]GlcNAc
# In short: as §1
# [15] = biological target: Fuc(a1-2)Gal(b1-3)[Fuc(a1-4)]GlcNAc(b1-2)Man(a1-3)[Fuc(a1-2)Gal(b1-3)[Fuc(a1-4)]GlcNAc(b1-2)Man(a1-3)]Man(b1-4)GlcNAc(b1-4)GlcNAc
# In short: as §1
# [16] = biological target: Fuc(a1-2)Gal(b1-3)[Fuc(a1-4)]GlcNAc(b1-2)Man(a1-3)[Fuc(a1-2)Gal(b1-3)[Fuc(a1-4)]GlcNAc(b1-2)Man(a1-6)]Man(b1-4)GlcNAc(b1-4)[Fuc(a1-6)]GlcNAc(b1-4)[Fuc(a1-6)]GlcNAc
# In short: as §1
# [17] = biological target: Fuc(a1-2)Gal(b1-3)[Fuc(a1-4)]GlcNAc(b1-3)[Fuc(a1-3)[Gal(b1-4)]GlcNAc(b1-6)]Gal(b1-4)Glc
# In short: as §1
# [18] = biological target: Fuc(a1-2)Gal(b1-3)[Fuc(a1-4)]GlcNAc(b1-3)[Gal(b1-4)GlcNAc(b1-6)]Gal(b1-4)Glc
# In short: as §1
# Fuc(a1-2)Gal(b1-4)Glc = biological target: Fuc(a1-2)Gal(b1-4)Glc
# In short: as §1
# Fuc(a1-2)Gal(b1-4)Glc6S = biological target: Fuc(a1-2)Gal(b1-4)Glc6S
# In short: as §1
# Fuc(a1-2)Gal(b1-4)GlcNAc = biological target: Fuc(a1-2)Gal(b1-4)GlcNAc
# In short: as §1
# [19] = biological target: Fuc(a1-2)Gal(b1-4)GlcNAc(b1-2)Man
# In short: as §1
# [20] = biological target: Fuc(a1-2)Gal(b1-4)GlcNAc(b1-2)Man(a1-3)[Fuc(a1-2)Gal(b1-4)GlcNAc(b1-2)Man(a1-6)]Man(b1-4)GlcNAc(b1-4)GlcNAc
# In short: as §1
# [21] = biological target: Fuc(a1-2)Gal(b1-4)GlcNAc(b1-2)Man(a1-3)[Fuc(a1-2)Gal(b1-4)GlcNAc(b1-2)Man(a1-6)]Man(b1-4)GlcNAc(b1-4)[Fuc(a1-6)]GlcNAc
# In short: as §1
# [22] = biological target: Fuc(a1-2)Gal(b1-4)GlcNAc(b1-2)[Fuc(a1-2)Gal(b1-4)GlcNAc(b1-4)]Man(a1-3)[Fuc(a1-2)Gal(b1-4)GlcNAc(b1-2)Man(a1-6)]Man(b1-4)GlcNAc(b1-4)GlcNAc
# In short: as §1
# [23] = biological target: Fuc(a1-2)Gal(b1-4)GlcNAc(b1-3)Gal(b1-4)GlcNAc
# In short: as §1
# [24] = biological target: Fuc(a1-2)Gal(b1-4)GlcNAc(b1-3)Gal(b1-4)GlcNAc(b1-2)Man(a1-3)[Fuc(a1-2)Gal(b1-4)GlcNAc(b1-3)Gal(b1-4)GlcNAc(b1-2)Man(a1-6)]Man(b1-4)GlcNAc(b1-4)GlcNAc
# In short: as §1
# [25] = biological target: Fuc(a1-2)Gal(b1-4)GlcNAc(b1-3)Gal(b1-4)GlcNAc(b1-3)Gal(b1-4)GlcNAc
# In short: as §1
# [26] = biological target: Fuc(a1-2)Gal(b1-4)GlcNAc(b1-3)GalNAc
# In short: as §1
# [27] = biological target: Fuc(a1-2)Gal(b1-4)GlcNAc(b1-3)[Fuc(a1-2)Gal(b1-4)GlcNAc(b1-6)]GalNAc
# In short: as §1
# [28] = biological target: Fuc(a1-2)Gal(b1-4)GlcNAc(b1-3)[Fuc(a1-3)[Gal(b1-4)]GlcNAc(b1-6)]Gal(b1-4)Glc
# In short: as §1
# [29] = biological target: Fuc(a1-2)Gal(b1-4)GlcNAc(b1-6)GalNAc
# In short: as §1
# [30] = biological target: Fuc(a1-2)Gal(b1-4)GlcNAc6S
# In short: as §1
# [31] = biological target: Fuc(a1-2)Gal(b1-4)[Fuc(a1-3)]GlcNAc
# In short: as §1
binder,measurement,setting,value
Cohesin-mDCIR (Macaca mulatta) (protein) GLDDLDAVRIKVDTVNAKPGDTVRIPVRFSGIPSKGIANCDFVYSYDPNVLEIIEIEPGDIIVDPNPDKSFDTAVYPDRKIIVFLFAEDSGTGAYAITKDGVFATIVAKVKEGAPNGLSVIKFVEVGGFANNDLVEQKTQFFDGGVNVGDTTEPATPTTPVTTPTTTDDLDAASFQKYSQLLEKMTTKDLVHTTLECVKKNMTTEETAWSCCPKNWKPFSSNCYFISTESASWQKSEKDCARMEAHLLVINTREEQDFIFQNLQEESAYFVGLSDPEGQRHWQWVDRTPYNESSTFWHPHEPSDPDERCVVLNFRKTPKRWGWNDVHCIVHQRSVCEMMKIHLHHHHHH,glycan array binding signal (z-score),Fuc(a1-2)Gal,0.531
same,glycan array binding signal (z-score),Fuc(a1-2)Gal(b1-3)GalNAc,-0.338
same,glycan array binding signal (z-score),[1],-0.421
same,glycan array binding signal (z-score),[2],-0.43
same,glycan array binding signal (z-score),[3],0.216
same,glycan array binding signal (z-score),[4],-0.245
same,glycan array binding signal (z-score),[5],0.163
same,glycan array binding signal (z-score),Fuc(a1-2)Gal(b1-3)GlcNAc,-0.041
same,glycan array binding signal (z-score),[6],-0.372
same,glycan array binding signal (z-score),[7],-0.352
same,glycan array binding signal (z-score),[8],-0.358
same,glycan array binding signal (z-score),[9],-0.291
same,glycan array binding signal (z-score),[10],-0.376
same,glycan array binding signal (z-score),[11],-0.452
same,glycan array binding signal (z-score),[12],-0.318
same,glycan array binding signal (z-score),[13],-0.407
same,glycan array binding signal (z-score),[14],-0.153
same,glycan array binding signal (z-score),[15],0.232
same,glycan array binding signal (z-score),[16],-0.253
same,glycan array binding signal (z-score),[17],-0.151
same,glycan array binding signal (z-score),[18],-0.246
same,glycan array binding signal (z-score),Fuc(a1-2)Gal(b1-4)Glc,0.107
same,glycan array binding signal (z-score),Fuc(a1-2)Gal(b1-4)Glc6S,-0.318
same,glycan array binding signal (z-score),Fuc(a1-2)Gal(b1-4)GlcNAc,0.219
same,glycan array binding signal (z-score),[19],-0.301
same,glycan array binding signal (z-score),[20],-0.037
same,glycan array binding signal (z-score),[21],0.245
same,glycan array binding signal (z-score),[22],-0.119
same,glycan array binding signal (z-score),[23],-0.033
same,glycan array binding signal (z-score),[24],-0.215
same,glycan array binding signal (z-score),[25],-0.381
same,glycan array binding signal (z-score),[26],-0.325
same,glycan array binding signal (z-score),[27],0.129
same,glycan array binding signal (z-score),[28],-0.368
same,glycan array binding signal (z-score),[29],0.7
same,glycan array binding signal (z-score),[30],-0.269
same,glycan array binding signal (z-score),[31],0.229
